# Measurements reported in the supplement of paper PMC12217912.
# The other results are listed elsewhere or left out. The full chains were built here from the parent and the listed change. Values near 0.05 are background.
# B1: TEV protease; numbered along this chain (parent)
# chain: MGESLFKGPRDYNPISSSICHLTNESDGHTTSLYGIGFGPFIITNKHLFRRNNGTLVVQSLHGVFKVKDTTTLQQHLVDGRDMIIIRMPKDFPPFPQKLKFREPQREERICLVTTNFQTKSMSSMVSDTSCTFPSGDGIFWKHWIQTKDGQCGSPLVSTRDGFIVGIHSASNFTNTNNYFTSVPKNFMELLTNQEAQQWVSGWRLNADSVLWGGHKVFMVKPEEPFQPVKEATQL
# Variants of: B1
# Assay: raw area under fraction-flipped curve 0-4 h after induction (AUC4h, not background-subtracted), DNA-recorder readout of cleavage of the substrate (dimensionless); higher = more cleavage of the substrate by the protease variant
# Details: temperature: 34 °C; time window: 0-4 h after rhamnose induction
# 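Note: Bxb1 expression induced with 0.2% (w/v) L-rhamnose at OD600 near 0.5, cultures sampled hourly, flipped fraction per protease–substrate barcode pair counted by paired-end Illumina sequencing.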
Variant,area with substrate ENLYFCS,area with substrate ENLYFFS,area with substrate ENLYFPS,area with substrate ENLYFYS,area with substrate ENLYFDS,area with substrate ENLYFES,area with substrate ENLYFGS,area with substrate ENLYFIS,area with substrate ENLYFKS,area with substrate ENLYFMS,area with substrate ENLYFNS,area with substrate ENLYFRS,area with substrate ENLYFSS,area with substrate ENLYFTS,area with substrate ENLYFVS,area with substrate ENLYFWS,area with substrate ENLYFHS,area with substrate ENLYFLS
MGESLFKGPRDYNPISSSICHLTNESDGHTTSLYGIGFGPFIITNKHLFRRNNGTLVVQSLHGVFKVKDTTTLQQHLVDGRDMIIIRMPKDFPPFPQKLKFREPQREERICLVTTNFQTKSMSSMVSDTSCTFPSGDGIFWKHWIQTKDGQCGSPLVSTRDGFIVGIHSASNFTNTNNYFTSVPKNFMELLTNQEAQQWSSGWRLNADSVLWGGHKVFMVKPEEPFQPVKEATQL [V200S],0.0591,0.0768,0.0517,0.0501,,,,,,,,,,,,,,
MGESLFKGPRDYNPIYSSICHLTNESDGHTTSLYGIGFGPFIITNKHLFRRNNGTLVVQSLHGVFKVKDTTTLQQHLVDGRDMIIIRMPKDFPPFPQKLKFREPQREERICLVTTNFQTKSMSSMVSDTSCTFPSGDGIFWKHWIQTKDGQCGSPLVSTRDGFIVGIHSASNFTNTNNYFTSVPKNFMELLTNQEAQQWVSGWRLNADSVLWGGHKVFMVKPEEPFQPVKEATQL [S16Y],,0.067,0.0576,0.0578,0.0463,0.0591,0.0651,0.0557,0.0761,0.0641,0.0629,0.0654,0.057,0.0684,0.0652,0.0697,,
MGESLFKGPRDYNPISSSICHLTNESDGHTTSLYGIGFGPFIITNKHLFRRNNGTLVVQSLHGVFKVKDTTTLQQHLVDGRDMIIIRMPKDFPPFPQKLKFREPQREERICLVTTNFQTKSMSSMVSDTSCTFPSGDGIFWKHWIQTKDGQCGSPLVSTRDGFIVGIHSASNFTNTNNYFTSVPKNFMELLVNQEAQQWVSGWRLNADSVLWGGHKVFMVKPEEPFQPVKEATQL [T192V],0.0642,0.0845,0.0495,0.0766,,,0.0748,0.0582,,0.0599,0.068,,0.0361,0.0669,0.0609,0.056,0.0589,
MGESLFKGPRDYNPISSSICHLTNESDGHTTSLYGIGFGPFIITNKHLFRRNNGTLVVQSLHGVFKVKDTTTLQQHLVDGRDMIIIRMPKDFPPFPQKLKFREPQREERICLVTTNFQTKSMSSMVSDTSCTFPSGDGIFWKHWIQTKDGQCGSPLVSTRDGFIVGIHSASNFTNTNNYFTSVPKNFMELLINQEAQQWVSGWRLNADSVLWGGHKVFMVKPEEPFQPVKEATQL [T192I],0.0642,0.0769,0.0743,0.0561,0.0632,0.0643,,0.0449,0.0737,0.0602,0.0809,0.0626,0.0639,0.067,0.0523,0.0619,0.0774,
MGESLFKGPRDYNPISSSICHLTNESDGHTTSLYGIGFGPFIITNKHLFRRNNGTLVVQSLHGVFKVKDTTTLQQHLVDGRDMIIIRMPKDFPPFPQKLKFREPQREERICLVTTNFQTKSMSSMVSDTSCTFPSGDGIFWKHWIQTKDGQCGSPLVSTRDGFIVGIHSASNFTNTNNYFTSVPKNFMELLTNQEAQQWVSGWHLNADSVLWGGHKVFMVKPEEPFQPVKEATQL [R204H],0.0639,0.0722,0.069,0.077,,0.0815,0.0522,0.0577,,0.0673,0.0594,,0.0535,0.0608,0.0158,0.0461,0.0608,0.0661
MGESLFKGPRDYNPISSSICHLTNESDGHTTSLYGIGFGPFIITNKHLFRRNNGTLVVQSLHGVFKVKDTTTLQQHLVDGRDMIIIRMPKDFPPFPQKLKFREPQREERICLVTTNFQTKSMSSMVSDTSCTFPSGDGIFWKHWIQTKDGQCGSPLVSTRDGFIVGIHSASNFTNTNNYFTSVPKNFMELLTNQEAQQWVSGWRLNADSVLWGGHQVFMVKPEEPFQPVKEATQL [K216Q],0.035,,,,,0.0701,,0.0528,,,0.0638,0.0549,,0.0392,0.0263,,0.0526,
MGESLFKGPRDYNPISSSICHLTNESDGHTTSLYGIGFGPFIITNKHLFRRNNGTLVVQSLHGVFKVKDTTTLQQHLVDGRDMIIIRMPKDFPPFPQKLKFREPQREERICLVTTNFQTKSMSSMVSDTSCTFPSGDGIFWKHWIQTKDGQCGSPLVSTRDGFIVGIHSASNFTNTNNYFTSVVKNFMELLTNQEAQQWVSGWRLNADSVLWGGHKVFMVKPEEPFQPVKEATQL [P184V],0.0578,0.0548,0.0602,0.0846,0.0631,0.0675,,0.0433,0.0591,0.0544,0.0371,0.082,,,0.0465,0.102,,
MGESLFKGPRDYNPISSSICHLTNESDGHTTSLYGIGFGPFIITNKHLFRRNNGTLVVQSLHGVFKVKDTTTLQQHLVDGRDMIIIRMPKDFPPFPQKLKFREPQREERICLVTTNFQTKSMSSMVSDTSCTFPSGDGIFWKHWIQTKDGQCGSPLVSTRDGFIVGIHSASNFTNTNNYFTSVHKNFMELLTNQEAQQWVSGWRLNADSVLWGGHKVFMVKPEEPFQPVKEATQL [P184H],0.0502,0.0634,,0.0626,0.061,0.0592,,,0.0567,0.05,,0.0607,0.0567,0.0494,,0.0377,0.0628,0.056
MGESLFKGPRDYNPISSSICHLTNESDGHTTSLYGIGFGPFIITNKHLFRRNNGTLVVQSLHGVFKVKDTTTLQQHLVDGRDMIIIRMPKDFPPFPQKLKFREPQREERICLVTTNFQTKSMSSMVSDTSCTFPSGDGIFWKHWIQTKDGQCGSPLVSTRDGFIVGIHSASNFTNTNNYFTSVPKNFMELLTNQEAQQWVSGWRLNAESVLWGGHKVFMVKPEEPFQPVKEATQL [D208E],0.0392,,,,,0.0634,0.0528,0.0587,,0.0949,,,0.0507,0.0443,,0.0589,0.0496,
MGESLFKKPRDYNPISSSICHLTNESDGHTTSLYGIGFGPFIITNKHLFRRNNGTLVVQSLHGVFKVKDTTTLQQHLVDGRDMIIIRMPKDFPPFPQKLKFREPQREERICLVTTNFQTKSMSSMVSDTSCTFPSGDGIFWKHWIQTKDGQCGSPLVSTRDGFIVGIHSASNFTNTNNYFTSVPKNFMELLTNQEAQQWVSGWRLNADSVLWGGHKVFMVKPEEPFQPVKEATQL [G8K],,0.0506,0.0499,,0.055,0.0604,,0.0534,,,,0.063,0.0619,0.0634,0.0573,0.0674,,0.0655
MGESLFKGPRDYNPISSSICHLTNESDGHTTSLYGIGFGPFIITNKHLFRRNNGTLVVQSLHGVFKVKDTTTLQQHLVDGRDMIIIRMPKDFPPFPQKLKFREPQREERICLVTTNFQTKSMSSMVSDTSCTFPSGDGIFWKHWIQTKDGQCGSPLVSTRDGFIVGIHSASNFTNTNNYFTSVPKNFMELLTNQEAQQWVSGWRLNADSVLWGGHKVFMVKPEYPFQPVKEATQL [E224Y],0.0479,0.0726,0.0603,,0.0543,,0.0493,0.0514,0.0664,0.0544,0.0511,0.0597,,,,,,
MGESLFKGPRDYNPISSSICHLTNESDGHTTSLYGIGFGPFIITNKHLFRRNNGTLVVQSLHGVFKVKDTTTLQQHLVDGRDMIIIRMPKDFPPFPQKLKFREPQREERICLVTTNFQTKSMSSMVSDTSCTFPSGDGIFWKHWIQTKDGQCGSPLVSTRDGFIVGIHSASNFTNTNNYFTSVPKNFMELLTNQEAQQWVSGWRLNADSVLWGGHKVFMVKPERPFQPVKEATQL [E224R],0.0603,,0.0631,0.053,,0.0712,0.0517,0.0289,0.0624,0.0759,0.0494,,0.0599,0.0611,,0.0538,0.0344,
MGESLFKGPRDYNPISSSICHLTNESDGHTTSLYGIGFGPFIITNKHLFRRNNGTLVVQSLHGVFKVKDTTTLQQHLVDGRDMIIIRMPKDFPPFPQKLKFREPQREERICLVTTNFQTKSMSSMVSDTSCTFPSGDGIFWKHWIQTKDGQCGSPLVSTRDGFIVGIMSASNFTNTNNYFTSVPKNFMELLTNQEAQQWVSGWRLNADSVLWGGHKVFMVKPEEPFQPVKEATQL [H168M],0.0562,0.078,0.0613,0.0555,0.0598,0.0659,,0.0444,0.0636,0.0678,0.0584,0.0452,0.0679,0.0576,,,0.0511,
MGESLFKGPRDYNPISSSICHLTNESDGHTTSLYGIGFGPFIITNKHLFRRNNGTLVVQSLHGVFKVKDTTTLQQHLVDGRDMIIIRMPKDFPPFPQKLKFREPQREERICLVTTNFQTKSMSSMVSDTSCTFPSGDGIFWKHWIQTKDGQCGSPLVSTRDGFIVGIHSASNFTNTNNYFTSVPKNFMELLTNQEAQQWVSGWRLNADSVLWGGHKVFMRKPEEPFQPVKEATQL [V220R],0.0795,0.0738,,,0.0499,0.0695,0.0625,0.0553,0.064,0.0687,0.0608,0.0383,0.0571,0.0602,0.0556,0.0556,0.0678,
MGESLFKGPRDYNPISSSICHLTNESDGHTTSLYGIGFGPFIITNKHLFRRNNGTLVVQSLHGVFKVKDTTTLQQHLVDGRDMIIIRMPKDFPPFPQKLKFREPQREERICLVTTNFQTKSMSSMVSDTSCTFPSGDGIFWKHWIQTKDGQCGSPLVSTRDGFIVGIHSASNFTNDNNYFTSVPKNFMELLTNQEAQQWVSGWRLNADSVLWGGHKVFMVKPEEPFQPVKEATQL [T176D],0.0647,0.0666,0.0648,0.0563,,,,0.0665,0.057,0.0636,0.064,,0.0751,0.076,,0.049,0.0704,
MGESLFKGPRDYNPISSSICHLTNESDGHTTSLYGIGFGPFIITNKHLFRRNNGTLVVQSLHGVFKVKDTTTLQQHLVDGRDMIIIRMPKDFPPFPQKLKFREPQREERICLVTTNFQTKSMSSMVSDTSCTFPSGDGIFWKHWIQTKDGQCGSPLVSTRDGFIVGIHSASNFTNTNNYFTSVPKNFMELLTNQEAQQWVSGWRLNADSVLWGGHKVFMVKPEEPFQPVKESTQL [A232S],0.0498,0.0606,,,0.042,0.0661,,0.0563,,0.073,0.0793,0.053,0.0693,,,0.0524,0.0803,
MGESLFKGPRDYNPISSSICHLTNESDGHTTSLYGIGFGPFIITNKHLFRRNNGTLVVQSLHGVFKVKDTTTLQQHLVDGRDMIIIRMPKDFPPFPQKLKFREPQREERICLVTTNFQTKSMSSMVSDTSCTFPSGDGIFWKHWIQTKDGQCGSPLVSTRDGFIVGIHSASNFTNTNNYFTSVPKNFMELLTNQEAQQWVSGWRLNADSVLWGGHKVFMVKPEEPFQPVKEHTQL [A232H],0.0555,0.0629,0.0553,,0.0613,,,0.0617,,0.0639,,0.0573,0.0648,,,0.0397,0.0542,0.0818
MGESLFKGPRDYNPISSSICHLTNESDGHTTSLYGIGFGPFIITNKHLFRRNNGTLVVQSLHGVFKVKDTTTLQQHLVDGRDMIIIRMPKDFPPFPQKLKFREPQREERICLVTTNFQTKSMSSMVSDTSCTFPSGDGIFWKHWIQTKDGQCGSPLVSTRDGFIVGIHSASNFTNTNNYFTSVPKNFMELLTNQEAQQWVSGWRLNADSVLWGGHKVFMVKPEEPFQPVKEGTQL [A232G],0.0621,0.0547,0.0534,,,0.0651,0.0542,0.061,,0.0669,0.0805,,,,0.0493,,0.0563,0.0791
MGESLFKGPRDYNPISSSICHLTNESDGHTTSLYGIGFGPFIITNKHLFRRNNGTLVVQSLHGVFKVKDTTTLQQHLVDGRDMIIIRMPKDFPPFPQKLKFREPQREERICLVTTNFQTKSMSSMVSDTSCTFPSGDGIFWKHWIQTKDGQCGSPLVSTRDGFIVGIHSASNFTNTNNYFTSVPKNFMELLTNQEAQQWVSGWRLNADSVLWGGHKVFMVKPEEPFQPVKENTQL [A232N],0.0635,,0.0574,,,0.0672,,0.0388,0.0507,,,,,,,0.063,,
